In PubChem BioAssay AID1745853 (National Center for Advancing Translational Sciences (NCATS), 2022):
The list shows a part of the results. Further columns of the screen follow, without active or inactive calls.

Columns and labels:
Assay in all cases: Primary Screen for Target Class Profiling of Small Molecule Inhibitors of Methyltransferases
[1] = target: Glycine N-methyltransferase (Homo sapiens) (UniProt Q14749); conditions: purified enzyme, MTase-Glo SAH luminescence; measured here: GNMT inhibition; at 40 µM; stronger effect = lower value
Procedure, shortened: (§1)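 Each enzyme was assayed with SAM and its substrate. SAH formation detected by MTase-Glo luminescence; single-point 40 uM screen[…].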

[2] = target: Guanidinoacetate N-methyltransferase (Homo sapiens) (UniProt Q14353); conditions: purified enzyme, MTase-Glo SAH luminescence; measured here: GAMT inhibition; at 40 µM; stronger effect = lower value
Procedure, shortened: as §1

[3] = target: Histamine N-methyltransferase (Homo sapiens) (UniProt P50135); conditions: purified enzyme, MTase-Glo SAH luminescence; measured here: HNMT inhibition; at 40 µM; stronger effect = lower value
Procedure, shortened: as §1

[4] = target: Nicotinamide N-methyltransferase (Homo sapiens) (UniProt P40261); conditions: purified enzyme, MTase-Glo SAH luminescence; measured here: NNMT inhibition; at 40 µM; stronger effect = lower value
Procedure, shortened: as §1

[5] = target: Phenylethanolamine N-methyltransferase (Homo sapiens) (UniProt P11086); conditions: purified enzyme, MTase-Glo SAH luminescence; measured here: PNMT inhibition; at 40 µM; stronger effect = lower value
Procedure, shortened: as §1
% is set by controls: 0 for no effect and ±100 for the full control effect.

Row | SMILES | activity change, negative = inhibition [1] | activity change, negative = inhibition [2] | activity change, negative = inhibition [3] | activity change, negative = inhibition [4] | activity change, negative = inhibition [5]
1 | C[N+]1(CCCCC[N+]2(C)CCCC2)CCCC1 | 8.9% | 14% | 14.3% | -3.61% | -1.5%
2 | CC(C)C1(O)NC(=O)C(CC2(O)c3ccccc3N3C(=O)C(C)(C)NC32)n2c1nc1ccccc1c2=O (stereo not given) | -0.86% | -6.19% | 1.32% | -20.4% | 0.83%
3 | C[C@H](NC(=O)C(C)(C)Oc1ccc(C(F)(F)F)cn1)[C@@H](Cc1ccc(Cl)cc1)c1cccc(C#N)c1 | -2.6% | -15.2% | 3.59% | -30.5% | -5.96%
4 | COC(=O)C1C(c2ccc(O)cc2)C(C(=O)OC)C1c1ccc(O)cc1 (stereo not given) | 3.6% | 3.53% | 9.71% | -9.06% | 2.38%
5 | CCOC(=O)C1CCCN(c2nc3c(S(=O)(=O)c4ccc(Br)cc4)nnn3c3ccccc23)C1 (stereo not given) | -4.38% | 2.82% | 5.37% | 5.46% | -1.2%
6 | COC(=O)c1ccc([C@@H]2Nc3c(Cl)cccc3[C@@H]3C=CC[C@@H]32)cc1 | -15% | 1.58% | -8.44% | -13.7% | -9.97%
7 | CC1(C(=O)NC2CCCCC2)Cn2c(cc3occc32)C(=O)N1Cc1ccccc1Cl (stereo not given) | -5.63% | -6.78% | 4.23% | -4.99% | -9.66%
8 | CC(C)CCNC(=O)C1(C)Cn2nc(C(=O)N3CCOCC3)cc2C(=O)N1C (stereo not given) | 5.02% | 0.251% | 5.75% | 9.33% | 4.13%
9 | Cc1ccc(N2C(=O)c3cc4occc4n3CC2(C)C(=O)NC2CCCCC2C)cc1 (stereo not given) | 2.52% | 0% | 4.79% | 4.33% | 2.32%
10 | Cc1ccc(S(=O)(=O)N2CCC(Oc3ncccc3C(=O)N(C)C)C2)cc1C (stereo not given) | -3.95% | -4.74% | -3.15% | -12.3% | -5.17%
11 | CCC(C)NC(=O)Cn1nc2n(C)c(=O)c3ccc(C(=O)NC4CCCCC4)cc3n2c1=O (stereo not given) | 5.72% | 0% | 5.22% | 5.46% | 5.49%
12 | COc1ccccc1N1CCN(CC(C(=O)NC(C)(C)C)c2ccccc2)CC1 (stereo not given) | 1.96% | 0.077% | 10% | -15.5% | 0.293%
13 | O=C(Nc1ccccc1)c1cc([N+](=O)[O-])ccc1Cl | -9.21% | 2.63% | 0.237% | -6.28% | 5.75%
14 | COc1ccc(NC(=O)N2Cc3c(sc4c3CCCC4)-n3cccc3C2c2cccc(C)c2)cc1OC (stereo not given) | -2.73% | -0.229% | 0.799% | -8.95% | 0.725%
15 | C[C@H]1CC2C3CCC4=CC(=O)C=C[C@]4(C)[C@@]3(Cl)[C@@H](O)C[C@]2(C)[C@@]1(O)C(=O)CO (stereo not given in full) | -11.2% | 1.73% | -2.14% | -5.77% | 3.88%
16 | C=C1C(=O)O[C@@H]2/C=C(\C)CC/C=C(\C)CC[C@@H]12 | 1.69% | -4.71% | 7.19% | -15.2% | 3.17%
17 | CC(=O)O[C@H]1CC2C(COC(=O)CC(C)C)=CO[C@@H](OC(=O)CC(C)C)C2[C@]12CO2 (stereo not given in full) | 2.29% | 10.2% | 9.01% | -1.93% | 2.6%
18 | COc1ccc(Nc2nc3c(S(=O)(=O)c4ccc(F)cc4)nnn3c3ccccc23)c(OC)c1 | 2.78% | 1.06% | 11.1% | 14.3% | 3.61%
19 | CCOc1ccccc1NC(=O)N1CCCCCCNC(=O)CC1c1ccccc1 (stereo not given) | -2.71% | 0.804% | -0.879% | 1.59% | -1.88%
20 | Cc1ccc(-c2nnn3c2nc(Cl)c2ccccc23)cc1 | -7.29% | 0.661% | -2.96% | -6.01% | -6.56%
21 | Cc1cccc(C(=O)N2CCCCCNC(=O)CC2c2ccccc2)c1 (stereo not given) | -1.57% | 1.71% | -0.788% | -1.28% | -0.162%
22 | O=C(NC1CCOCC1)c1cccc(S(=O)(=O)N2CCC[C@H]2CO)c1 | -3.17% | -5.73% | -0.816% | -11.9% | -8.03%
23 | Cc1ccc(-n2nc(C)c([C@H]3C=C[C@@H](OC(=O)N[C@H](C)c4ccccc4)C3)c2C)cc1Cl | -8.81% | -10% | -7.36% | -16.7% | -9.9%
24 | CCCCSCc1cc(C(=O)N2CC(C)(C)C(C)(O)C2)oc1C (stereo not given) | -1.72% | 1.14% | 1.19% | -3.2% | 3.75%
25 | CC[N+]1(CC)CCC(=C(c2ccccc2)c2ccccc2)C1C (stereo not given) | 2.23% | 5.3% | -6.84% | -11.2% | 5.59%
26 | COc1ccccc1CNS(=O)(=O)c1ccc2[nH]c3c(c2c1)CCCC3 | -6.79% | 1.16% | -3.62% | -15% | -10.1%
27 | COc1ccccc1-n1cc(C(=O)N2CCCC2c2nonc2C)cn1 (stereo not given) | -1.74% | 0.111% | 2.11% | 1.93% | 17.1%
28 | CC(C)CCn1c(=O)c2ccc(C(=O)NC3CCCC3)cc2n2c(=O)n(C)nc12 | -0.216% | 3.46% | 2.74% | 2.67% | -2.18%
29 | CC1=C(CC(=O)O)c2cc(F)ccc2/C1=C\c1ccc(S(C)=O)cc1 (stereo not given) | -6.46% | 11.5% | -2.6% | -7.8% | 1.65%
30 | CCCN1C(=O)c2cc3ccc(OC)cc3n2CC1(C)C(=O)NC1CCCCC1 (stereo not given) | 3.79% | 0.249% | 3.88% | 4.3% | 0.681%
